# From PubChem BioAssay (Tox21)
# Inconclusive means that the source gave no clear call. Such entries were picked first, then a sample of the others. Where a call stands in place of a potency, no number is given. For some assays here: Potencies beside an inconclusive call are fits to weak or partial responses and may not hold up. Calls of active or inactive are those of the source. Unless noted, calls come from the whole dose curve; as a rule, active = well fitted curve in the direction sought with a large enough effect in the repeat runs; inconclusive = weak or mixed curves; inactive = no such curve, though single readings can be large; an effect the other way counts as inactive or inconclusive.
# Assays:
# [1] = A CellTox Green Cytotoxicity Assay to monitor cytotoxicity in HepG2 cells - 40 hour (AID 1224879); settings: CellTox Green fluorescence; series mostly up to 76.8 µM; note: nearly all actives have a fitted effect of over 40% in size
# Summary of the method: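 Real-time cytotoxicity: fluorescence of a cell-impermeant cyanine dye binding DNA of dead HepG2 cells, measured repeatedly (0–40 h) during compound exposure at 37 C. Cells seeded 600/well with reagent, dosed after 5 h.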
# [2] = biological target: Progesterone receptor (Homo sapiens) (UniProt P06401); assay: qHTS assay to identify small molecule antagonists of the progesterone receptor (PR) signaling pathway (AID 1346795; active = well fitted inhibition curve with a large enough effect in the signal ratio in the repeat runs, not every such curve was filed as active; inconclusive = weak or mixed curves; the % refers to the signal ratio); settings: PR-UAS-bla HEK293T, beta-lactamase FRET ratio, 16 h; activity change, negative = inhibition: at 92.4 µM (top of the series) unless noted
# UniProt P06401, sequence (P06401 whole entry, looked up): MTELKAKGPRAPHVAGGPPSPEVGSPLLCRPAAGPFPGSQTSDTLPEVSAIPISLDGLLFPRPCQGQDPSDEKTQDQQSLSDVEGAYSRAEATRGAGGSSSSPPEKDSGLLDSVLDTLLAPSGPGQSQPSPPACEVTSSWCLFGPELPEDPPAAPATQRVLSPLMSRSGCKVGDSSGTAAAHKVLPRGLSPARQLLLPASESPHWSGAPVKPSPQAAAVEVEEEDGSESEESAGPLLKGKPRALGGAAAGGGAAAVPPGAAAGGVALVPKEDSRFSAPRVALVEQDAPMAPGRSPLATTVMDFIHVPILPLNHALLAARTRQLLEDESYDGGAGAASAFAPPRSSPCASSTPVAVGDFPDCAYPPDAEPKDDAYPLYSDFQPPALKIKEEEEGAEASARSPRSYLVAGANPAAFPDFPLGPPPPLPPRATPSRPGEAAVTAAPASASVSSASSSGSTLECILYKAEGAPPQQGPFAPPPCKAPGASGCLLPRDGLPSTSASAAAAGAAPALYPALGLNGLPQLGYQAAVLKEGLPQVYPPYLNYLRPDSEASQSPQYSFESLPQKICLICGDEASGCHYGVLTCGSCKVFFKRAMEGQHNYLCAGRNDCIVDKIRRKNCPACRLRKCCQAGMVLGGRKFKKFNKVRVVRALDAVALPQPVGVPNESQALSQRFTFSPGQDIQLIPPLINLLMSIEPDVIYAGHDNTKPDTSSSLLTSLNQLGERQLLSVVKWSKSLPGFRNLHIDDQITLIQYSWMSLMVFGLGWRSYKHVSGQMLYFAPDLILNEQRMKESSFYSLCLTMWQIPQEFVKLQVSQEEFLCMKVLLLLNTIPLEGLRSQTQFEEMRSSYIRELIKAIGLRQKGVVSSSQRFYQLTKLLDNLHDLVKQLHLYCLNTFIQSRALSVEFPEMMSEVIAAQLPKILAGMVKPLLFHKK
# Summary of the method: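 Read-out is fluorescence from the LiveBLAzer B/G FRET substrate, cleaved by a UAS-controlled beta-lactamase in PR-UAS-bla HEK293T cells after 16 hr exposure to compound plus 1 nM promegestone (final), followed by 2 hr at room temperature.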
# [3] = biological target: Androgen receptor (Homo sapiens) (UniProt P10275); assay: qHTS assay to identify small molecule agonists of the androgen receptor (AR) signaling pathway (AID 743036; active = well fitted activation curve with a large enough effect in the signal ratio in the repeat runs, with a control signal flat, not every such curve was filed as active; inconclusive = weak or mixed curves, or effect the other way; inactive = no such curve, though single readings can be large or run the other way; the % refers to the signal ratio; note: potency is the fitted concentration of half-maximal effect); settings: HEK293 AR-UAS-bla GripTite, beta-lactamase FRET ratio, 16 h; activation: at 62.4 µM (top of the series) unless noted
# UniProt P10275, sequence (P10275 whole entry, looked up): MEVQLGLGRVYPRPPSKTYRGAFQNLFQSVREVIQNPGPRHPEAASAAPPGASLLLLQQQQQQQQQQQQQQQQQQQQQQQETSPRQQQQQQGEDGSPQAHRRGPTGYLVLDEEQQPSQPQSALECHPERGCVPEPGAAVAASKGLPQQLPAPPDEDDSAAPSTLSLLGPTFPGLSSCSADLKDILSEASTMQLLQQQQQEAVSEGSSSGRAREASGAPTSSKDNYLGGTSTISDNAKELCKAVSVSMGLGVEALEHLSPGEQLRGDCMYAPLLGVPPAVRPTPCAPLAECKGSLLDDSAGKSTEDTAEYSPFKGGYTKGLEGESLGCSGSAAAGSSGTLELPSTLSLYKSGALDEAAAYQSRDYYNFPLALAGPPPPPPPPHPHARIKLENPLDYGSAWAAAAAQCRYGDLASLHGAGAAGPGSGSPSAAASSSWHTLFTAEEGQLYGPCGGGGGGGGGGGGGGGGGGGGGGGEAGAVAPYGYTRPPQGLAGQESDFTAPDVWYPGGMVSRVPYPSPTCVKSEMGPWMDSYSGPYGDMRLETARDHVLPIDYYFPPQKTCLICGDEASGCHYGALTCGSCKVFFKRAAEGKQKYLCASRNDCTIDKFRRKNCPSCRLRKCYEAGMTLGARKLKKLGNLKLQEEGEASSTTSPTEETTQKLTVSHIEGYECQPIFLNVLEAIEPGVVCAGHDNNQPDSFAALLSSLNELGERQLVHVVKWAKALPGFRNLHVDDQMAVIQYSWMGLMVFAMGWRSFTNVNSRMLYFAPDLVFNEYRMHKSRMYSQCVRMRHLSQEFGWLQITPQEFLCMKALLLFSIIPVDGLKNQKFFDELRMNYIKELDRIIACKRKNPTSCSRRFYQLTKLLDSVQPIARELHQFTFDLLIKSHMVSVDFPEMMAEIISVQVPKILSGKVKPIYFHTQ
# Summary of the method: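 Fluorescence from a beta-lactamase FRET substrate served as read-out in AR-UAS-bla GripTite HEK293 cells. Cells were treated with DMSO-dissolved compounds for 16 h at 37C, then with LiveBLAzer B/G substrate for 2 h at room temperature.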
# [4] = Human pregnane X receptor (PXR) small molecule agonists, qHTS cell viability counter screen (AID 1346977); settings: PXR-Luc HepG2 viability, CellTiter-Fluor, 24 h; series mostly up to 92.4 µM; note: nearly all actives have a fitted effect of over 50% in size
# Summary of the method: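 PXR-Luc HepG2, 2,000 cells/well, 5% charcoal-stripped FBS; 5hr settle; cpd 24hr, 37C/5% CO2; CellTiter-Fluor at 23hr, read 1hr later (fluorescence).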
# [5] = Caspase-3/7 induction in CHO-K1 cells by small molecules, qHTS cell viability counter screen (AID 1346979); settings: CellTiter-Fluor fluorescence, 17 h; series mostly up to 92.4 µM; note: nearly all actives have a fitted effect of over 35% in size
# Summary of the method: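 Cells (CHO-K1, wild type) are plated at 1,500 per well and incubated 5hr. Test compounds in DMSO are then pinned in, followed by 16hr at 37C and 5% CO2. Viability is read by CellTiter-Fluor fluorescence after 1hr.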
# [6] = biological target: Nuclear receptor subfamily 1 group I member 2 (Homo sapiens) (UniProt O75469); assay: Human pregnane X receptor (PXR) small molecule agonists, qHTS assay (AID 1346982); settings: PXR-Luc HepG2, CYP3A4 luciferase reporter, 24 h; series mostly up to 92.4 µM; note: nearly all actives have a fitted effect of over 35% in size; note: potency is the fitted concentration of half-maximal effect
# Summary of the method: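 Agonist mode: luminescence from ONE-Glo after 24 h compound exposure at 37C in HepG2 cells carrying hPXR-responsive CYP3A4 luciferase, plated in charcoal-stripped serum medium 5 h beforehand.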
# [7] = biological target: Nuclear receptor subfamily 1 group I member 2 (Homo sapiens) (UniProt O75469); assay: CYP3A4 induction through human pregnane X receptor (PXR) by small molecules, qHTS assay (AID 1346984); settings: DPX-2 HepG2 PXR, CYP3A4-luciferin luminescence, 24 h; activation: at 46.1 µM (top of the series); note: potency is the fitted concentration of half-maximal effect; nearly all actives have a fitted effect of over 40% in size
# Summary of the method: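 Read-out is luminescence after One-Glo addition, following a 3 hr, 37C incubation with Luciferin-IPA CYP3A4 substrate (3uM final). Before that, compounds were on DPX-2 cells (HepG2 co-transfected with PXR element plus CYP3A4-promoter luciferase) for 24 hr at 37C.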
# [8] = biological target: Peroxisome proliferator-activated receptor delta (Homo sapiens) (UniProt Q03181); assay: qHTS assay to identify small molecule antagonists of the peroxisome proliferator-activated receptor delta (PPARd) signaling pathway (AID 743215; active = well fitted inhibition curve with a large enough effect in the signal ratio in the repeat runs, not every such curve was filed as active; inconclusive = weak or mixed curves, or effect the other way; inactive = no such curve, though single readings can be large or run the other way; the % refers to the signal ratio;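 note: cells stimulated with agonist L165041 at 300 nM final during compound exposure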); settings: HEK293H PPARd-UAS-bla, beta-lactamase FRET ratio, antagonist, 17 h; ratio activity, negative = inhibition: at 62 µM (top of the series) unless noted
# UniProt Q03181, sequence (Q03181 whole entry, looked up): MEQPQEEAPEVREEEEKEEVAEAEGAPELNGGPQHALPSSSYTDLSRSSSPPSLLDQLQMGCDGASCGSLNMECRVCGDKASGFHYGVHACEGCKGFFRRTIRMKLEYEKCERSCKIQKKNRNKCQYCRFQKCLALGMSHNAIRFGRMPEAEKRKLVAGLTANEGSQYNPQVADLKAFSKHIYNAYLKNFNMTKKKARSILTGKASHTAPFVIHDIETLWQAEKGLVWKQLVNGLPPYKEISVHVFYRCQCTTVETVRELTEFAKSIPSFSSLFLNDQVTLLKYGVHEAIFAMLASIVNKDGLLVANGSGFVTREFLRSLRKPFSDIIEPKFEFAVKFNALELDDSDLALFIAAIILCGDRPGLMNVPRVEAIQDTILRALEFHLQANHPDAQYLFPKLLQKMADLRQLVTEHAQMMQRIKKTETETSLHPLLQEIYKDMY
# Summary of the method: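 Agonist L165041 (300 nM final) added with compound to PPARd-bla HEK293H UAS-bla reporter cells; 17 h incubation at 37 C. Read-out: LiveBLAzer FRET substrate, 2 h at room temperature, fluorescence intensity.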
# [9] = qHTS assay for small molecules that induce genotoxicity in human embryonic kidney cells expressing luciferase-tagged ATAD5 - cell viability (AID 651634; calls by dose curve; note: nearly all actives have a fitted effect of over 25% in size; note: potency is the fitted concentration of half-maximal effect); settings: HEK293T ATAD5-luc cells viability, CellTiter-Fluor, 15.5 h; series mostly up to 83.3 µM
# Summary of the method: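 Cytotoxicity counter-readout: after 15.5 hr compound treatment at 37C, live-cell protease activity in ATAD5-luciferase HEK293T cells measured by CellTiter-Fluor fluorescence, 30 min development at 37C.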
# [10] = biological target: Androgen receptor (Homo sapiens) (UniProt P10275); assay: qHTS assay to identify small molecule antagonists of the androgen receptor (AR) signaling pathway (AID 743035; active = well fitted inhibition curve with a large enough effect in the signal ratio in the repeat runs, not every such curve was filed as active; inconclusive = weak or mixed curves, or effect the other way; inactive = no such curve, though single readings can be large or run the other way; the % refers to the signal ratio; note: potency is the fitted concentration of half-maximal effect); settings: HEK293 AR-UAS-bla, R1881-stimulated, beta-lactamase FRET, 16 h; activity change, negative = inhibition: at 58.5 µM (top of the series) unless noted
# Summary of the method: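 Antagonist mode: AR-bla HEK293 cells co-treated with test compounds and agonist R1881 for 16 h at 37C, 5% CO2. Beta-lactamase activity read as FRET fluorescence after 2 h room-temperature substrate loading.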
# [11] = qHTS assay to identify small molecule antagonists of the estrogen receptor beta (ER-beta) signaling pathway - cell viability counter screen (AID 1259382); settings: ER-beta-UAS-bla HEK293T viability, CellTiter-Glo luminescence, 16 h; series mostly up to 92.4 µM;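 note: HEK293T cells carrying ER-beta-UAS-bla reporter stimulated with estradiol; nearly all actives have a fitted effect of over 55% in size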
# Summary of the method: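 Cytotoxicity was measured in the same wells by CellTiter-Glo luminescence after 30 min at room temperature. Cells were ER-beta-bla HEK293T in charcoal-stripped serum, given compound together with 1 nM E2 and incubated 16 h at 37C.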
# [12] = biological target: Thyrotropin receptor (Homo sapiens) (UniProt P16473); assay: qHTS assay to identify small molecule antagonists of the thyroid stimulating hormone receptor (TSHR) signaling pathway (AID 1259385; calls by dose curve; note: nearly all actives have a fitted effect of over 20% in size); settings: TSHR-HEK293 cAMP HTRF, TSH-stimulated antagonist mode; activity change, negative = inhibition: at 92.4 µM (top of the series)
# UniProt P16473, sequence (P16473 whole entry, looked up): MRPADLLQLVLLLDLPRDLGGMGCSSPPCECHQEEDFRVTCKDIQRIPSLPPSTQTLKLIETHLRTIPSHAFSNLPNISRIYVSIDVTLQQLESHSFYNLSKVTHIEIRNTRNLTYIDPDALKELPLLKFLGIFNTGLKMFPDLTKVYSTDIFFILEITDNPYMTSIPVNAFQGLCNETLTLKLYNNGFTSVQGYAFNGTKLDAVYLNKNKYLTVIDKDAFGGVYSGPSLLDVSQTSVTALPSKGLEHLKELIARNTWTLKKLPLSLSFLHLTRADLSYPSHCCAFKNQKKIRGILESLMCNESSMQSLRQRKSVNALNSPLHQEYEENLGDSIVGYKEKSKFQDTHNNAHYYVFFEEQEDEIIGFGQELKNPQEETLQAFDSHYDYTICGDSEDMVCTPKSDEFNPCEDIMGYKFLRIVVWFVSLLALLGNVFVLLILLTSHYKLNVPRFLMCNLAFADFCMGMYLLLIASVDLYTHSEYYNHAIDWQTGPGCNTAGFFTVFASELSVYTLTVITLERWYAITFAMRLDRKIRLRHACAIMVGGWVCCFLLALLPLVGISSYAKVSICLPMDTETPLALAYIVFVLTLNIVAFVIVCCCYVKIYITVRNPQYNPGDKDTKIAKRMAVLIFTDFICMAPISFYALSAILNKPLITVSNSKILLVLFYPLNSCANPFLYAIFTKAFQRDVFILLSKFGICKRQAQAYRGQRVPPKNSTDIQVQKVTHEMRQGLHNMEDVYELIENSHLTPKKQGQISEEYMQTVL
# Summary of the method: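 TSHR-HEK293 cells (800/well) plated 18 h, then compounds with Ro20-1724 and TSH at 1.5 ng/mL final, 30 min at room temperature. cAMP quantified by HTRF (cAMP-d2/anti-cAMP-cryptate, 1 h); 15 concentrations in triplicate.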
# [13] = biological target: Peroxisome proliferator-activated receptor delta (Homo sapiens) (UniProt Q03181); assay: qHTS assay to identify small molecule agonists of the peroxisome proliferator-activated receptor delta (PPARd) signaling pathway (AID 743212; calls by dose curve); settings: HEK293H PPARd-UAS-bla, beta-lactamase FRET ratio, 17 h; activation: at 62.6 µM (top of the series) unless noted
# Summary of the method: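 Read-out: beta-lactamase FRET fluorescence after 2 h room-temperature incubation with LiveBLAzer B/G substrate. Cells were HEK293H carrying a UAS-bla reporter for PPARd, treated at 37 C with DMSO-dissolved compounds.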
# Tags give direction and shape of the fitted curve or compound fluorescence and quenching.
smiles,measurement,setting,value
C1=CCC=C1,Potency,[1],inactive
same,Potency,[2],inactive
ClCc1ccccc1Cl,Potency,[3],"inconclusive: 55.9 µM [activator, single point]"
CC(C)OC(=O)Cc1ccccc1,Potency,[4],inactive
same,Potency,[5],inactive
same,Potency,[6],inactive
CCC1(c2ccccc2)C(=O)NC(=O)N(C)C1=O (stereo unspecified),Potency,[7],"inconclusive: 6.31 µM [activator, partial curve, poor fit]"
CC(=O)OCC1=C(C(=O)O)N2C(=O)[C@@H](N)[C@H]2SC1,Potency,[8],inactive
CC[C@@H](O)C(C[C@@H](C)N(C)C)(c1ccccc1)c1ccccc1,Potency,[9],"inconclusive: 13.8 µM [falling, partial curve, poor fit]"
C[C@]12CC[C@H](O)C[C@H]1CC[C@@H]1[C@@H]2CC[C@]2(C)[C@@H](c3ccc(=O)oc3)C[C@H]3O[C@]132,Potency,[9],active: 2.11 µM
same,Potency,[10],active: 6.01 µM
same,activation,[3],inconclusive: -2.52%
same,Potency,[7],active: 5.01 µM
C=C(Cl)CCl,Potency,[2],inactive
same,Potency,[4],inactive
C[C@]12C[C@H]3S[C@H]3C[C@@H]1CC[C@@H]1[C@@H]2CC[C@]2(C)[C@@H](O)CC[C@@H]12,Potency,[10],"inconclusive: 0.182 µM [falling, full curve]"
same,Potency,[3],active: 0.0032 µM
CNC(=S)S,Potency,[11],inactive
Clc1ccc(C(Cn2ccnc2)OCc2csc3c(Cl)cccc23)c(Cl)c1 (stereo unspecified),"activity change, negative = inhibition",[10],inconclusive: -26.3% [at 27 µM]
same,Potency,[7],active: 3.98 µM
C#CCN1CC(=O)N(COC(=O)C2C(C=C(C)C)C2(C)C)C1=O (stereo unspecified),Potency,[7],"inconclusive: 20 µM [activator, partial curve, poor fit]"
C/C(=C\c1csc(C)n1)[C@@H]1C[C@@H]2O[C@]2(C)CCC[C@H](C)[C@H](O)[C@@H](C)C(=O)C(C)(C)[C@@H](O)CC(=O)O1,Potency,[9],"inconclusive: 0.0335 µM [falling, partial curve, poor fit]"
same,Potency,[10],active: 0.0239 µM
same,activation,[3],inconclusive: 19.2%
Oc1cccc[c]1[Hg][Cl],Potency,[10],active: 6.74 µM
same,Potency,[3],"inconclusive: 21.3 µM [falling, partial curve]"
CCCCS(=O)(=O)Cl,Potency,[8],inactive
same,Potency,[12],inactive
same,Potency,[2],inactive
O=C(NC(=O)c1c(F)cccc1F)Nc1ccc(Cl)c(Oc2ncc(C(F)(F)F)cc2Cl)c1,Potency,[9],inactive
CCOC(=O)c1ncn2c1CN(C)C(=O)c1c(I)cccc1-2,Potency,[13],inactive
same,Potency,[11],inactive
same,Potency,[4],inactive
same,Potency,[6],inactive
N#CCCNCCC#N,Potency,[12],inactive
O=C(O)/C=C\C(=O)O,Potency,[6],"inconclusive: 2.43 µM [activator, single point]"
Cc1ccc([N+](=O)[O-])cc1,Potency,[11],inactive
same,Potency,[5],inactive
COc1cc(C[C@H](C)N)c(OC)cc1Br,Potency,[9],inactive
c1ccc(C2(N3CCCC3)CCCCC2)cc1,Potency,[9],"inconclusive: 33.5 µM [falling, partial curve, poor fit]"
same,Potency,[7],active: 1.58 µM
